# Measured values taken from the supplement of paper PMC8728848.
# The list shows a part of the results.
# Tests used:
# Assay in all cases: glycan array binding signal (z-score within array); higher = stronger binding
# Conditions in all cases: glycan notation: IUPAC condensed, linker removed
# [1] = biological target: Fuc(a1-3)[Gal(b1-4)]Glc6S
# Procedure, shortened: (§1)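 The binding signal is a Z-score computed within each array and averaged over linkers. Arrays of the same protein sequence at different concentrations or buffers were also averaged together. Data originate from 3228 arrays in the Consortium for Functional Glycomics database, kept only where the protein sequence was available.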
# [2] = biological target: Fuc(a1-3)[Gal(b1-4)]GlcNAc
# Procedure, shortened: as §1
# [3] = biological target: Fuc(a1-3)[Gal(b1-4)]GlcNAc(b1-2)Man(a1-3)[Fuc(a1-3)[Gal(b1-4)]GlcNAc(b1-2)Man(a1-6)]Man(b1-4)GlcNAc(b1-4)GlcNAc
# Procedure, shortened: as §1
# [4] = biological target: Fuc(a1-3)[Gal(b1-4)]GlcNAc(b1-2)Man(a1-6)[Gal(b1-4)GlcNAc(b1-2)Man(a1-3)]Man(b1-4)GlcNAc(b1-4)GlcNAc
# Procedure, shortened: as §1
# [5] = biological target: Fuc(a1-3)[Gal(b1-4)]GlcNAc(b1-3)Gal(b1-3)[Fuc(a1-4)]GlcNAc
# Procedure, shortened: as §1
# [6] = biological target: Fuc(a1-3)[Gal(b1-4)]GlcNAc(b1-4)Gal(b1-4)[Fuc(a1-3)]GlcNAc
# Procedure, shortened: as §1
# [7] = biological target: Fuc(a1-3)[Gal(b1-4)]GlcNAc(b1-4)Gal(b1-4)[Fuc(a1-3)]GlcNAc(b1-4)Gal(b1-4)[Fuc(a1-3)]GlcNAc
# Procedure, shortened: as §1
# [8] = biological target: Fuc(a1-3)[Gal(b1-4)]GlcNAc6S
# Procedure, shortened: as §1
# [9] = biological target: Fuc(a1-3)[Gal3S(b1-4)]Glc6S
# Procedure, shortened: as §1
# [10] = biological target: Fuc(a1-3)[Gal3S(b1-4)]GlcNAc
# Procedure, shortened: as §1
# [11] = biological target: Fuc(a1-3)[Gal3S(b1-4)]GlcNAc6S
# Procedure, shortened: as §1
# [12] = biological target: Fuc(a1-3)[GalNAc(b1-4)]GlcNAc
# Procedure, shortened: as §1
# [13] = biological target: Fuc(a1-3)[Neu5Ac(a2-3)]Gal(b1-4)GlcNAc(b1-3)GalNAc
# Procedure, shortened: as §1
# Fuc(a1-4)GlcNAc = biological target: Fuc(a1-4)GlcNAc
# Procedure, shortened: as §1
# Fuc(b1-3)GlcNAc = biological target: Fuc(b1-3)GlcNAc
# Procedure, shortened: as §1
# Gal(a1-2)Gal = biological target: Gal(a1-2)Gal
# Procedure, shortened: as §1
# Gal(a1-3)Gal = biological target: Gal(a1-3)Gal
# Procedure, shortened: as §1
# Gal(a1-3)Gal(b1-3)GlcNAc = biological target: Gal(a1-3)Gal(b1-3)GlcNAc
# Procedure, shortened: as §1
# Gal(a1-3)Gal(b1-4)Glc = biological target: Gal(a1-3)Gal(b1-4)Glc
# Procedure, shortened: as §1
# Gal(a1-3)Gal(b1-4)GlcNAc = biological target: Gal(a1-3)Gal(b1-4)GlcNAc
# Procedure, shortened: as §1
# [14] = biological target: Gal(a1-3)Gal(b1-4)[Fuc(a1-3)]GlcNAc
# Procedure, shortened: as §1
# [15] = biological target: Gal(a1-3)Gal(b1-4)[Fuc(a1-3)]GlcNAc(b1-2)Man(a1-3)[Gal(a1-3)Gal(b1-4)[Fuc(a1-3)]GlcNAc(b1-2)Man(a1-6)]Man(b1-4)GlcNAc(b1-4)GlcNAc
# Procedure, shortened: as §1
# Gal(a1-3)GalNAc = biological target: Gal(a1-3)GalNAc
# Procedure, shortened: as §1
# [16] = biological target: Gal(a1-3)[Gal(a1-4)]Gal(b1-4)GlcNAc
# Procedure, shortened: as §1
# Gal(a1-4)Gal(b1-4)Glc = biological target: Gal(a1-4)Gal(b1-4)Glc
# Procedure, shortened: as §1
# Gal(a1-4)Gal(b1-4)GlcNAc = biological target: Gal(a1-4)Gal(b1-4)GlcNAc
# Procedure, shortened: as §1
# [17] = biological target: Gal(a1-4)Gal(b1-4)GlcNAc(b1-3)Gal(b1-4)Glc
# Procedure, shortened: as §1
# Gal(a1-4)GlcNAc = biological target: Gal(a1-4)GlcNAc
# Procedure, shortened: as §1
# Gal(a1-6)Glc = biological target: Gal(a1-6)Glc
# Procedure, shortened: as §1
# Gal(b1-2)Gal = biological target: Gal(b1-2)Gal
# Procedure, shortened: as §1
# Gal(b1-3)Gal = biological target: Gal(b1-3)Gal
# Procedure, shortened: as §1
# Gal(b1-3)Gal(b1-4)GlcNAc = biological target: Gal(b1-3)Gal(b1-4)GlcNAc
# Procedure, shortened: as §1
# [18] = biological target: Gal(b1-3)Gal(b1-4)GlcNAc(b1-2)Man(a1-3)[Gal(b1-3)Gal(b1-4)GlcNAc(b1-2)Man(a1-6)]Man(b1-4)GlcNAc(b1-4)GlcNAc
# Procedure, shortened: as §1
# Gal(b1-3)GalNAc = biological target: Gal(b1-3)GalNAc
# Procedure, shortened: as §1
# [19] = biological target: Gal(b1-3)GalNAc(a1-3)[Fuc(a1-2)]Gal(b1-4)Glc
# Procedure, shortened: as §1
# [20] = biological target: Gal(b1-3)GalNAc(a1-3)[Fuc(a1-2)]Gal(b1-4)GlcNAc
# Procedure, shortened: as §1
# [21] = biological target: Gal(b1-3)GalNAc(b1-3)Gal(a1-4)Gal(b1-4)Glc
# Procedure, shortened: as §1
# [22] = biological target: Gal(b1-3)GalNAc(b1-4)Gal(b1-4)Glc
# Procedure, shortened: as §1
# [23] = biological target: Gal(b1-3)GalNAc(b1-4)[Neu5Ac(a2-3)]Gal(b1-4)Glc
# Procedure, shortened: as §1
# Gal(b1-3)GlcNAc = biological target: Gal(b1-3)GlcNAc
# Procedure, shortened: as §1
# [24] = biological target: Gal(b1-3)GlcNAc(b1-2)Man(a1-3)[Gal(b1-3)GlcNAc(b1-2)Man(a1-6)]Man(b1-4)GlcNAc(b1-4)GlcNAc
# Procedure, shortened: as §1
# [25] = biological target: Gal(b1-3)GlcNAc(b1-2)Man(a1-3)[Gal(b1-3)GlcNAc(b1-2)Man(a1-6)]Man(b1-4)GlcNAc(b1-4)[Fuc(a1-6)]GlcNAc
# Procedure, shortened: as §1
# [26] = biological target: Gal(b1-3)GlcNAc(b1-3)Gal(b1-3)GlcNAc
# Procedure, shortened: as §1
# [27] = biological target: Gal(b1-3)GlcNAc(b1-3)Gal(b1-4)Glc
# Procedure, shortened: as §1
# [28] = biological target: Gal(b1-3)GlcNAc(b1-3)Gal(b1-4)GlcNAc
# Procedure, shortened: as §1
binder,measurement,setting,value
"DC-ASPGR (Homo sapiens), CLC10_HUMAN (protein) LDQNSKFQRDLVTLRTDFSNFTSNTVAEIQALTSQGSSLEETIASLKAEVEGFKQERQAVHSEMLLRVQQLVQDLKKLTCQVATLNNNASTEGTCCPVNWVEHQDSCYWFSHSGMSWAEAEKYCQLKNAHLVVINSREEQNFVQKYLGSAYTWMGLSDPEGAWKWVDGTDYATGFQNWKPGQPDDWQGHGLGGGEDCAHFHPDGRWNDDVCQRPYHWVCEAGLGQTSQESHVEPKSCDKTHTCPPCPAPELLGGPSVFLFPPKPKDTLMISRTPEVTCVVVDVSHEDPEVKFNWYVDGVEVHNAKTKPREEQFNSTYRVVSVLTVLHQDWLNGKEYKCKVSNKGLPSSIEKTISKAKGQPREPQVYTLPPSQEEMTKNQVSLTCLVKGFYPSDIAVEWESNGQPENNYKTTPPVLDSDGSFFLYSRLTVDKSRWQEGNVFSCSVMHEALHNHYTQK",glycan array binding signal (z-score),[1],-0.281
same,glycan array binding signal (z-score),[2],-0.246
same,glycan array binding signal (z-score),[3],-0.188
same,glycan array binding signal (z-score),[4],-0.182
same,glycan array binding signal (z-score),[5],-0.306
same,glycan array binding signal (z-score),[6],-0.099
same,glycan array binding signal (z-score),[7],-0.279
same,glycan array binding signal (z-score),[8],-0.114
same,glycan array binding signal (z-score),[9],-0.142
same,glycan array binding signal (z-score),[10],-0.041
same,glycan array binding signal (z-score),[11],-0.177
same,glycan array binding signal (z-score),[12],2.36
same,glycan array binding signal (z-score),[13],1.98
same,glycan array binding signal (z-score),Fuc(a1-4)GlcNAc,-0.218
same,glycan array binding signal (z-score),Fuc(b1-3)GlcNAc,-0.235
same,glycan array binding signal (z-score),Gal(a1-2)Gal,-0.14
same,glycan array binding signal (z-score),Gal(a1-3)Gal,-0.157
same,glycan array binding signal (z-score),Gal(a1-3)Gal(b1-3)GlcNAc,-0.157
same,glycan array binding signal (z-score),Gal(a1-3)Gal(b1-4)Glc,-0.245
same,glycan array binding signal (z-score),Gal(a1-3)Gal(b1-4)GlcNAc,-0.249
same,glycan array binding signal (z-score),[14],-0.218
same,glycan array binding signal (z-score),[15],-0.196
same,glycan array binding signal (z-score),Gal(a1-3)GalNAc,-0.213
same,glycan array binding signal (z-score),[16],-0.314
same,glycan array binding signal (z-score),Gal(a1-4)Gal(b1-4)Glc,-0.257
same,glycan array binding signal (z-score),Gal(a1-4)Gal(b1-4)GlcNAc,-0.137
same,glycan array binding signal (z-score),[17],-0.182
same,glycan array binding signal (z-score),Gal(a1-4)GlcNAc,-0.289
same,glycan array binding signal (z-score),Gal(a1-6)Glc,-0.302
same,glycan array binding signal (z-score),Gal(b1-2)Gal,-0.225
same,glycan array binding signal (z-score),Gal(b1-3)Gal,-0.213
same,glycan array binding signal (z-score),Gal(b1-3)Gal(b1-4)GlcNAc,-0.145
same,glycan array binding signal (z-score),[18],-0.216
same,glycan array binding signal (z-score),Gal(b1-3)GalNAc,-0.252
same,glycan array binding signal (z-score),[19],-0.082
same,glycan array binding signal (z-score),[20],-0.014
same,glycan array binding signal (z-score),[21],0.292
same,glycan array binding signal (z-score),[22],-0.168
same,glycan array binding signal (z-score),[23],1.09
same,glycan array binding signal (z-score),Gal(b1-3)GlcNAc,-0.177
same,glycan array binding signal (z-score),[24],-0.062
same,glycan array binding signal (z-score),[25],-0.221
same,glycan array binding signal (z-score),[26],-0.275
same,glycan array binding signal (z-score),[27],-0.21
same,glycan array binding signal (z-score),[28],-0.285
